# From article PMC4336329 (PLoS ONE, 2015)
# Screen size: about 310,000 compounds; about 14,000 (4.5%) showed an effect of 50% or more. Effects have a minus sign here. This is one part of the list.
# Target: human ether-à-go-go-related gene (hERG) potassium channel (human, UniProt Q12809)
# Test: primary screen, population patch clamp on CHO cells stably expressing hERG
# 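Note: peak tail current of the secondary pulse compared with the same well before compound.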
# human ether-à-go-go-related gene (hERG) potassium channel, sequence (Q12809 whole entry, looked up): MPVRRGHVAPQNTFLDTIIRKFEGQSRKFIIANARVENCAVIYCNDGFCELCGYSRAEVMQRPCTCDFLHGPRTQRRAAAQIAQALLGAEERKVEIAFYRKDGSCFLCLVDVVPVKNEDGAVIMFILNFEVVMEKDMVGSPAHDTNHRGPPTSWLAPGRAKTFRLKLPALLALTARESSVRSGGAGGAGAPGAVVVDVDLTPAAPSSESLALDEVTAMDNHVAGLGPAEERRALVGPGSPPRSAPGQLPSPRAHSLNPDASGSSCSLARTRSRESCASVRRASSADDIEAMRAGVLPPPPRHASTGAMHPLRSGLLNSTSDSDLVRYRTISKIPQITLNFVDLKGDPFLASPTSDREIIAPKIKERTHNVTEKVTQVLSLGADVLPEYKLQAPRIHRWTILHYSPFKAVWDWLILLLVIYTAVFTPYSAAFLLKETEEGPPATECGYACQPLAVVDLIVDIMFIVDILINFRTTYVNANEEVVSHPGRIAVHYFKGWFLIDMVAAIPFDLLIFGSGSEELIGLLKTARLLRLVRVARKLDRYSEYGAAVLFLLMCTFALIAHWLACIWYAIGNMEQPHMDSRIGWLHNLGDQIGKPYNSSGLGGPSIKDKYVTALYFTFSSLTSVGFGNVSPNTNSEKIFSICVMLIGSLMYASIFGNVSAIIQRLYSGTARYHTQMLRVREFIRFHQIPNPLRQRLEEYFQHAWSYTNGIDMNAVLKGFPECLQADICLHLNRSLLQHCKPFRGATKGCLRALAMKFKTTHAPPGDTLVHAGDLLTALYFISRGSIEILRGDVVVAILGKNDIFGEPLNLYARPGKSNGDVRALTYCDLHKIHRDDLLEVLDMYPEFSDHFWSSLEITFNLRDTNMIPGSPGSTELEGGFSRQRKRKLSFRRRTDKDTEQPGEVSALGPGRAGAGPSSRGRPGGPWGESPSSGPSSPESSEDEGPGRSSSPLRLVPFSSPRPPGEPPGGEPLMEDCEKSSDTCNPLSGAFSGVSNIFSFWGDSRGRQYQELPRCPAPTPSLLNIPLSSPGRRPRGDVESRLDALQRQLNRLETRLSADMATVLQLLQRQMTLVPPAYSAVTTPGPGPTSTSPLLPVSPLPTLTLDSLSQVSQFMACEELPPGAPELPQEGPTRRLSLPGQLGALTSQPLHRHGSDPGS
row,SMILES,"hERG current change (%, negative = inhibition) at 10uM [%]"
1,CCOc1ccc(CNC(=O)c2ccc(NC(=O)C3=CSCCO3)cc2)cc1,12
2,Cc1cc(C)c(C)c(S(=O)(=O)N2CCN(Cc3nc4ccccc4[nH]3)CC2)c1C,0.133
3,O=c1cc(CN2CCN(c3ccccn3)CC2)nc2sccn12,8.72
4,COc1cccc(OC)c1OCCNC(C)(C)C.O=C(O)C(=O)O,7.11
5,Cn1[nH]c(=O)c(Cl)c(Cl)c1=O,11.5
6,COCCN(C(=O)COC(=O)Cc1cccc(OC)c1)c1c(N)n(Cc2ccccc2)c(=O)[nH]c1=O,-15.6
7,NC(=O)CSc1nnc(-c2ccncc2)n1-c1ccc(Cl)cc1,-21.5
8,N#C/C(=C\c1ccc(-c2cccc([N+](=O)[O-])c2)o1)C(=O)NCCN1CCOCC1,-47.2
9,Fc1ccc(Cc2nnc(-c3cccs3)o2)cc1,-18.7
10,O=C(Nc1ccc(NC(=O)c2sc3ccccc3c2Cl)cc1)c1ccco1,38.5
11,CC1(C)Cc2c(cnn2-c2cccc(F)c2)C(NC(=O)c2ccc(=O)[nH]n2)C1 (stereo not drawn),-70.2
12,Cl.Nc1ccc(Br)c2cccnc12,11.6
13,Cc1ccc(S(=O)(=O)CC2CSc3nnc(C)c(=O)n32)cc1 (stereo not drawn),18.6
14,COc1cccc(CN(C)C(=O)c2cc(-c3ccc(OC)c(OC)c3)nc3ccccc23)c1,-21.3
15,COc1ccc(NC(=S)N/C(=N/S(=O)(=O)c2ccc(C)cc2)c2ccccc2)cc1,21.2
16,O=C(CCCOc1ccc(Cl)cc1Cl)N1CCc2ccccc2C1,12
17,O=S1(=O)N=C(Oc2cccc3ccccc23)c2ccccc21,7.02
18,O=C(C1=C(O)C(=O)N(CCCn2ccnc2)C1c1ccccc1)c1ccco1 (stereo not drawn),7.9
19,COc1ccccc1N1CCN(C(=O)CN2C(=O)c3ccccc3S2(=O)=O)CC1,-4.91
20,CNc1c(NS(=O)(=O)c2ccc(C(C)(C)C)cc2)c(=O)oc2ccccc12,-29.6
21,COc1ccc(N=C2SCC(c3ccccc3)=NN2C)cc1,8.46
22,Cc1cc(C)n2c(SCC(=O)Nc3ccc(F)cc3F)nnc2n1,65.3
23,O=C(CNc1c(Br)cc(Br)cc1Br)NN=C1CCCCC1,-7.41
24,CC(C)(C)NC(=O)COc1ccc(CNCc2cccs2)cc1.Cl,2.41
